# Experimental data reported in PubChem BioAssay AID624202 (National Center for Advancing Translational Sciences (NCATS), 2012).
# About 4,000 (1.1%) of roughly 380,000 compounds were called active. This list was built around the results that the source calls inconclusive (neither active nor inactive); the mix of calls is not that of the screen. Calls follow the shape of the dose curve; as a rule, active = well fitted activation curve with a large enough effect; inconclusive = small, poorly fitted or top-dose-only effect; inactive = no such curve, though single readings can be large or run the other way. Potencies beside an inconclusive call are fits to weak or partial responses and may not hold up.
# Experiment: qHTS Assay to Identify Small Molecule Activators of BRCA1 Expression; also: nearly all actives have a fitted effect of over 80% in size
# Conditions: MCF7-BRCA1-FFLuc reporter, luminescence, 48 h; activation: at 46.1 µM (top of the series), scaled: vehicle 0%, 10 µM genistein 100% unless noted
# Procedure, shortened: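 Reporter cells (MCF7, BRCA1 promoter-firefly luciferase) received library compounds across a concentration series for 48 h. End-point luminescence was measured and concentration-effect curves derived after normalization.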
# Potency is read from the fitted curve at half-maximal effect; tags tell the direction and shape of the fitted curve.
SMILES,Potency,activation
COc1ccc(C(=O)Nc2ccccc2C(=O)Nc2ccccc2C(=O)O)cc1,"inconclusive: 1.26 µM [activator, full curve, poor fit]",–
O=C(Nc1ccc2c(c1)OCO2)c1ccc(Cl)cc1Cl,"inconclusive: 0.501 µM [activator, full curve, poor fit]",–
O=C(/C=C/c1ccccc1)Nc1ccc(Br)cn1,active: 1.41 µM,–
COc1ccc(N=Nc2ccc(O)c3ncccc23)cc1,–,inactive: -65.2%
Cc1cc(C(=O)NCc2csc(-c3ccccc3)n2)no1,active: 10 µM,–
CCOc1ccc(C(=O)/C=C/Nc2ccc(S(=O)(=O)Nc3cc(C)nc(C)n3)cc2)cc1,"inconclusive: 11.2 µM [activator, partial curve, poor fit]",–
C=CCNc1nc(Nc2ccccc2F)nc(OCC)n1,active: 10 µM,–
C=CCNC(=S)NNC(=O)c1csc(C)c1C,–,inactive: -46.1%
CC(C)NC(=O)CSc1nc2ccccc2n1CC(=O)N(C(C)C)C(C)C,–,inactive: -10.2%
S=C(Nc1ccc(Cl)cc1)Nc1ccc2c(c1)OCCO2,active: 7.08 µM,–
CCCc1cc(C(=O)NCc2ccc(OC)cc2)no1,"inconclusive: 8.91 µM [activator, partial curve, poor fit]",–
CC(=O)c1ccc(NC(=O)c2cccc(S(=O)(=O)N3CCN(C)CC3)c2)cc1,active: 11.2 µM,–
O=S(=O)(c1ccccc1)n1ccc(-c2cnc(-c3ccccc3)s2)n1,active: 7.94 µM,–
N#Cc1ccc(N2Cc3ccccc3C2=NC(=O)c2cccnc2Cl)cc1,active: 12.6 µM,–
CC(C)Cc1nnc(NC(=O)CCC(=O)N2CCN(c3ccc([N+](=O)[O-])cc3)CC2)s1,–,inactive: -25.4%
CC(C)CCNC(=O)c1cc([N+](=O)[O-])ccc1N1CCOCC1,–,inactive: 9.1%
COc1ccc2c(c1)CCc1c(C(=O)N3CCCC3)noc1-2,"inconclusive: 2.51 µM [activator, partial curve, poor fit]",–
c1ccc(-c2cnc(-c3ccccc3)nc2)cc1,"inconclusive: 0.562 µM [activator, full curve, poor fit]",–
COc1ccc(NC(=O)c2cc3ccccc3o2)cc1,"inconclusive: 2.82 µM [activator, full curve, poor fit]",–
Cc1ccc(CN=C2Nc3ccccc3CS2)cc1,"inconclusive: 0.631 µM [activator, full curve, poor fit]",–
CSc1ccc(/C=N/n2c(C)cc(C)cc2=O)cc1,active: 10 µM,–
COc1ccc2nc(-c3ccccc3)[nH]c2c1,"inconclusive: 0.501 µM [activator, full curve, poor fit]",–
CCOc1ccc(Nc2nc3c(C)cccc3cc2C#N)cc1,–,inactive: 0.234%
O=C(NC(=S)Nc1ccccn1)c1cccc([N+](=O)[O-])c1,"inconclusive: 3.98 µM [activator, partial curve, poor fit]",–
O=C(CCl)N(c1ccccc1)C1CCCCC1,–,inactive: -95.1%
CCOC(=O)C1CCN(C(=O)Nc2ccc(OC(F)(F)F)cc2)CC1,active: 12.6 µM,–

SMILES,Potency,activation
NC(=S)NN=C(c1ccc(Br)cc1)C1CC1,–,inactive: -27.5%
Cc1csc(NC(=O)c2ccc(C)s2)n1,"inconclusive: 2.51 µM [activator, partial curve, poor fit]",–
Cc1cc(N/N=C/c2ccc(O)c(C)c2O)nc(-c2ccccc2O)n1,–,inactive: -96.8%
CCOC(=O)c1oc2c(c1C)/C(=N/O)CCC2,"inconclusive: 20 µM [activator, partial curve, poor fit]",–
COc1ccc2[nH]c(=O)c(-c3noc(-c4ccccc4)n3)cc2c1,active: 5.62 µM,–
NC(=O)c1ccsc1NC(=O)c1cc(=O)c2ccccc2o1,"inconclusive: 3.55 µM [activator, partial curve, poor fit]",–
CC1(O)C(c2ccccc2)=Nc2ccccc21 (stereo not drawn),"inconclusive: 1.26 µM [activator, full curve, poor fit]",–
Cn1ccnc1SCC(=O)c1ccc(OC(F)F)cc1,"inconclusive: 12.6 µM [activator, partial curve, poor fit]",–
CCN(CC)c1ccc(NC(=O)C2CCCC2)cc1,"inconclusive: 11.2 µM [activator, partial curve, poor fit]",–
COc1cc2ccccc2cc1C(=O)Nc1cccnc1,"inconclusive: 7.94 µM [activator, partial curve, poor fit]",–
C=CCn1c(C)csc1=Nc1ccc(C(C)=O)cc1,–,inactive: 96.2%
O=C(NC1CCCCCCC1)c1ccc2c(c1)OCO2,"inconclusive: 0.631 µM [activator, full curve, poor fit]",–
COc1ccc(-n2ncc(C(C)NS(=O)(=O)c3cc(F)ccc3C)c2C)cc1 (stereo not drawn),–,inactive: -9.83%
COc1ccc(C2Nc3ccccc3C(=O)N2c2ccc(Cl)cc2)cc1COc1ccc(NC(C)=O)cc1 (stereo not drawn),"inconclusive: 2.51 µM [activator, partial curve, poor fit]",–
CCc1ccc(NC(=S)Nc2ccc3[nH]c(=O)[nH]c3c2)cc1,"inconclusive: 22.4 µM [activator, single point]",–
Cn1c(-c2ccccc2)cnc1SCc1nc2ccccc2c(=O)[nH]1,–,inconclusive: 57.3% [activator]
CCCCCc1ccc(C(=O)CCCC)c(=S)[nH]1,–,inactive: -2.26%
Cc1cc(/C=N/Nc2ccc([N+](=O)[O-])cn2)c(C)n1-c1ccc(C(=O)O)cc1,"inconclusive: 31.6 µM [activator, single point]",–
Cc1ccc(S(=O)(=O)Cc2nc(-c3ccc(C(=O)NCc4ccccc4F)cc3)oc2C)cc1,–,inactive: 4.61%
CCOc1cccc2cc(-c3csc(NC(=O)CCC(=O)NCCN4CCCCC4C)n3)c(=O)oc12 (stereo not drawn),"inconclusive: 1.26 µM [activator, full curve, poor fit]",–
Cc1cc(NC(=O)c2ccc(NC(=O)C(C)Oc3ccccc3)cc2)no1 (stereo not drawn),active: 12.6 µM,–
COc1ccccc1-c1nnc(SCC(=O)c2ccc(F)cc2)n1-c1ccccc1,–,inactive: -35.9%
O=C(CN1C(=O)NC2(CCCCCC2)C1=O)c1ccc2c(c1)OCCO2,active: 2.82 µM,–
Cc1ccc(C(=O)CSc2nnc(C(C)C)n2C)cc1C,"inconclusive: 11.2 µM [activator, partial curve, poor fit]",–
Cc1ccc(C(=O)NCCOc2cccc(C)c2)cc1,"inconclusive: 7.08 µM [activator, partial curve, poor fit]",–
COc1ccc(-c2nc(C=O)cs2)cc1,"inconclusive: 14.1 µM [activator, partial curve, poor fit]",–

SMILES,Potency,activation
CC(C)(C)OC(=O)CNC(=O)c1[nH]cnc1C(=O)Nc1ccc(Cl)cc1,–,inactive: -35.1%
CCc1noc(-c2ccc(N3CCCCC3)c([N+](=O)[O-])c2)n1,active: 7.08 µM,–
CC(=O)c1cc(C#N)c(SCc2ccccc2)nc1C,"inconclusive: 11.2 µM [activator, partial curve, poor fit]",–
Nc1nc(-c2ccccc2)cn1/N=C/c1ccccc1,"inconclusive: 10 µM [activator, partial curve, poor fit]",–
Cc1ccc(/C=C2/NC(=O)N(c3ccccc3)C2=O)o1,active: 7.94 µM,–
Cc1ccccc1C(=O)Nc1ccc(N2CCCC2)cc1,"inconclusive: 7.08 µM [activator, partial curve, poor fit]",–
CCCC[n+]1c2ccccc2cc2ccccc21,–,inactive: -55.1%
COc1ccccc1-c1cnn2c(N3CCOCC3)cc(C)nc12,"inconclusive: 11.2 µM [activator, partial curve, poor fit]",–
Cn1cccc1-c1nc2ccc([N+](=O)[O-])cc2[nH]1,"inconclusive: 2.51 µM [activator, full curve, poor fit]",–
Cc1ccn2c(Nc3ccc4c(c3)OCCO4)c(-c3ccc(C)s3)nc2c1,"inconclusive: 15.8 µM [activator, partial curve, poor fit]",–
COc1c(N)c2c(c([N+](=O)[O-])c1OC)C(=O)OC2,–,inactive: -3.76%
Cc1ccc(S(=O)(=O)N(Cc2ccccc2)c2ccccc2C(=O)N2CCCCC2)cc1,–,inactive: -57.3%
CCOc1ccccc1CN1CCN(Cc2cc3ccccc3[nH]2)CC1CCO (stereo not drawn),–,inactive: -51.5%
CC(=O)c1sc(NC(=O)c2cccc(C)c2)nc1C,"inconclusive: 3.55 µM [activator, partial curve, poor fit]",–
COc1ccccc1NC(=O)Nc1nnc(C(C)C)s1,"inconclusive: 10 µM [activator, partial curve, poor fit]",–
CCCCn1c(/N=C/c2ccccc2NS(=O)(=O)c2ccc(C)cc2)nc2ccccc21,–,inactive: -80.8%
CCc1cc2c(N=Nc3c(O)[nH]c4ccccc34)ncnc2s1,–,inactive: -52.4%
OC(CNCc1ccncc1)c1ccccc1 (stereo not drawn),–,inactive: 3.47%
CCOC(=O)c1ccc(Nc2ncnc3nc[nH]c23)cc1,active: 6.31 µM,–
CC(C)CCCCCCCCCCCCC(=O)NCC(=O)NC1C(O)C(O)C(Nc2ncnc3nc[nH]c23)OC1C(O)CO (stereo not drawn),–,inconclusive: -99.4% [activator]
O=C1NC[C@H](CCCCN2C[C@@H](Cc3ccccc3)N(CC3CCCCC3)C(=O)C2=O)N(CCC2CCCCC2)C1=O,–,inactive: -30.1%
COc1ccc(CCC(=O)Nc2sccc2C#N)cc1,active: 11.2 µM,–
Cc1ccc(Nc2cccccc2=O)cc1,"inconclusive: 10 µM [activator, partial curve, poor fit]",–
Cc1c(C(=O)Nc2cccc([N+](=O)[O-])c2)cnn1-c1ccccc1,active: 2.51 µM,–
O=C(Nc1nnc(-c2ccc(F)cc2)s1)c1ccco1,active: 2.82 µM,–
COc1ccc2nc(NC3=NCCC3)sc2c1,"inconclusive: 2 µM [activator, full curve, poor fit]",–
